Test results: the supplement of paper PMC8728848
The other results are listed elsewhere or left out.

Columns and labels:
Assay in all cases: glycan array binding signal (z-score within array); higher = stronger binding
Conditions in all cases: glycan notation: IUPAC condensed, linker removed
[1] = target: Fuc(a1-3)[Gal3S(b1-4)]GlcNAc6S
In short: (§1)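 The binding signal is a Z-score computed within each array. Data were drawn from 3228 arrays in the Consortium for Functional Glycomics database, restricted to those with a known protein sequence. Scores were averaged over arrays of the same protein sequence at different concentrations or buffers, and over linkers, and negative values can be taken as non-binding.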

[2] = target: Fuc(a1-3)[GalNAc(b1-4)]GlcNAc
In short: as §1

[3] = target: Fuc(a1-3)[GalNAc(b1-4)]GlcNAc6S
In short: as §1

[4] = target: Fuc(a1-4)GlcNAc
In short: as §1

[5] = target: Fuc(b1-3)GlcNAc
In short: as §1

[6] = target: Gal(a1-2)Gal
In short: as §1

[7] = target: Gal(a1-3)Gal
In short: as §1

[8] = target: Gal(a1-3)Gal(b1-3)GlcNAc
In short: as §1

[9] = target: Gal(a1-3)Gal(b1-3)GlcNAc(b1-2)Man
In short: as §1

[10] = target: Gal(a1-3)Gal(b1-3)GlcNAc(b1-2)Man(a1-3)[Gal(a1-3)Gal(b1-3)GlcNAc(b1-2)Man(a1-6)]Man(b1-4)GlcNAc(b1-4)GlcNAc
In short: as §1

[11] = target: Gal(a1-3)Gal(b1-3)GlcNAc(b1-3)GalNAc
In short: as §1

[12] = target: Gal(a1-3)Gal(b1-3)GlcNAc(b1-6)GalNAc
In short: as §1

[13] = target: Gal(a1-3)Gal(b1-3)[Fuc(a1-4)]GlcNAc(b1-2)Man(a1-3)[Gal(a1-3)Gal(b1-3)[Fuc(a1-4)]GlcNAc(b1-2)Man(a1-6)]Man(b1-4)GlcNAc(b1-4)GlcNAc
In short: as §1

[14] = target: Gal(a1-3)Gal(b1-4)Glc
In short: as §1

[15] = target: Gal(a1-3)Gal(b1-4)GlcNAc
In short: as §1

[16] = target: Gal(a1-3)Gal(b1-4)GlcNAc(b1-2)Man
In short: as §1

[17] = target: Gal(a1-3)Gal(b1-4)GlcNAc(b1-2)Man(a1-3)[Gal(a1-3)Gal(b1-4)GlcNAc(b1-2)Man(a1-6)]Man(b1-4)GlcNAc(b1-4)GlcNAc
In short: as §1

[18] = target: Gal(a1-3)Gal(b1-4)GlcNAc(b1-3)GalNAc
In short: as §1

[19] = target: Gal(a1-3)Gal(b1-4)GlcNAc(b1-6)GalNAc
In short: as §1

[20] = target: Gal(a1-3)Gal(b1-4)[Fuc(a1-3)]GlcNAc
In short: as §1

[21] = target: Gal(a1-3)Gal(b1-4)[Fuc(a1-3)]GlcNAc(b1-2)Man(a1-3)[Gal(a1-3)Gal(b1-4)[Fuc(a1-3)]GlcNAc(b1-2)Man(a1-6)]Man(b1-4)GlcNAc(b1-4)GlcNAc
In short: as §1

[22] = target: Gal(a1-3)GalNAc
In short: as §1

[23] = target: Gal(a1-3)[Gal(a1-4)]Gal(b1-4)GlcNAc
In short: as §1

[24] = target: Gal(a1-4)Gal(b1-3)GlcNAc(b1-2)Man(a1-3)[Gal(a1-4)Gal(b1-3)GlcNAc(b1-2)Man(a1-6)]Man(b1-4)GlcNAc(b1-4)GlcNAc
In short: as §1

[25] = target: Gal(a1-4)Gal(b1-4)Glc
In short: as §1

[26] = target: Gal(a1-4)Gal(b1-4)GlcNAc
In short: as §1

[27] = target: Gal(a1-4)Gal(b1-4)GlcNAc(b1-2)Man(a1-3)[Gal(a1-4)Gal(b1-4)GlcNAc(b1-2)Man(a1-6)]Man(b1-4)GlcNAc(b1-4)GlcNAc
In short: as §1

[28] = target: Gal(a1-4)Gal(b1-4)GlcNAc(b1-3)Gal(b1-4)Glc
In short: as §1

[29] = target: Gal(a1-4)GlcNAc
In short: as §1

[30] = target: Gal(a1-6)Glc
In short: as §1

[31] = target: Gal(b1-2)Gal
In short: as §1

[32] = target: Gal(b1-3)Gal
In short: as §1

[33] = target: Gal(b1-3)Gal(b1-4)GlcNAc
In short: as §1

[34] = target: Gal(b1-3)GalNAc
In short: as §1

[35] = target: Gal(b1-3)GalNAc(a1-3)[Fuc(a1-2)]Gal(b1-4)Glc
In short: as §1

[36] = target: Gal(b1-3)GalNAc(a1-3)[Fuc(a1-2)]Gal(b1-4)GlcNAc
In short: as §1

[37] = target: Gal(b1-3)GalNAc(b1-3)Gal
In short: as §1

B1: FimD (Bordetella pertussis) (protein)
chain: MPARVISFCGAALAVWAGLAVQPAMAVDPPVDCGRALGLHFWSSASLISDQTPDGTLIGKPVVGRSLLSKSCKVPDDIKEDLSDNHDGEPVDIVLELGSNYKIRPQSYGHPGIVVDLPFGSTEETGIAIYIDFGSSPMQKVGERQWLYPQKGEVLFDVLTINGDNAEVRYQAIKVGPLKRPRKLVLSQFPNLFTYKWVFMRGTSQERVLAQGTIDTDVATSTIDLKTCRYTSQTVSLPIIQRSALTGVGTTLGMTDFQMPFWCYGWPKVSVYMSATKTQTGVDGVALPATGQAAGMASGVGVQLINGKTQQPVKLGLQGKIALPEAQQTESATFSLPMKAQYYQTSTSTSAGKLSVTYAVTLNYD
glycan array binding signal (z-score) [1]: -0.062
glycan array binding signal (z-score) [2]: 0.051
glycan array binding signal (z-score) [3]: -0.127
glycan array binding signal (z-score) [4]: 1.73
glycan array binding signal (z-score) [5]: -0.068
glycan array binding signal (z-score) [6]: -0.465
glycan array binding signal (z-score) [7]: -0.055
glycan array binding signal (z-score) [8]: -0.352
glycan array binding signal (z-score) [9]: -0.508
glycan array binding signal (z-score) [10]: 0.616
glycan array binding signal (z-score) [11]: 0.012
glycan array binding signal (z-score) [12]: -0.163
glycan array binding signal (z-score) [13]: 0.135
glycan array binding signal (z-score) [14]: -0.29
glycan array binding signal (z-score) [15]: -0.093
glycan array binding signal (z-score) [16]: -0.109
glycan array binding signal (z-score) [17]: 1.67
glycan array binding signal (z-score) [18]: -0.373
glycan array binding signal (z-score) [19]: -0.253
glycan array binding signal (z-score) [20]: -0.54
glycan array binding signal (z-score) [21]: 0.181
glycan array binding signal (z-score) [22]: -0.104
glycan array binding signal (z-score) [23]: 0.351
glycan array binding signal (z-score) [24]: 0.407
glycan array binding signal (z-score) [25]: -0.034
glycan array binding signal (z-score) [26]: 0.016
glycan array binding signal (z-score) [27]: 0.299
glycan array binding signal (z-score) [28]: 0.144
glycan array binding signal (z-score) [29]: -0.28
glycan array binding signal (z-score) [30]: -0.424
glycan array binding signal (z-score) [31]: -0.17
glycan array binding signal (z-score) [32]: -0.42
glycan array binding signal (z-score) [33]: -0.348
glycan array binding signal (z-score) [34]: -0.281
glycan array binding signal (z-score) [35]: -0.298
glycan array binding signal (z-score) [36]: -0.449
glycan array binding signal (z-score) [37]: -0.089
